In PubChem BioAssay AID602310 (National Center for Advancing Translational Sciences (NCATS), 2012):
Among all 410,000 compounds or so, about 310 (0.076%) were called active. This list was built around the results that the source calls inconclusive (neither active nor inactive); the mix of calls is not that of the screen. The call rests on the fitted dose curve; in most records, active means well fitted curve in the direction sought with a large enough effect; inconclusive means small, poorly fitted or top-dose-only effect; inactive means flat fitted curve, though single readings scatter. Where the call is inconclusive, the potency comes from a doubtful curve fit.
Further: nearly all actives have a fitted effect of over 60% in size.
On the % scale 0 is the no-effect control and ±100 the full control effect; potency means the concentration at half of the fitted maximal effect; tags describe the fitted curve by direction and shape.
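Wherever activity, negative = active is given: hits raise eYFP signal because A3G escapes Vif-driven loss.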

What follows are compounds tested against DNA dC->dU-editing enzyme APOBEC-3G (Homo sapiens) (UniProt Q9HC16) (assay: qHTS for Inhibitors of Vif-A3G Interactions: qHTS). Conditions: HeLa A3G-eYFP + Vif (tagged APOBEC3G with the HIV-1 protein that degrades it), YFP fluorescence, overnight; series mostly up to 46.1 µM; activity, negative = active: at the top concentration.
Sequence of UniProt Q9HC16 (Q9HC16 whole entry, looked up): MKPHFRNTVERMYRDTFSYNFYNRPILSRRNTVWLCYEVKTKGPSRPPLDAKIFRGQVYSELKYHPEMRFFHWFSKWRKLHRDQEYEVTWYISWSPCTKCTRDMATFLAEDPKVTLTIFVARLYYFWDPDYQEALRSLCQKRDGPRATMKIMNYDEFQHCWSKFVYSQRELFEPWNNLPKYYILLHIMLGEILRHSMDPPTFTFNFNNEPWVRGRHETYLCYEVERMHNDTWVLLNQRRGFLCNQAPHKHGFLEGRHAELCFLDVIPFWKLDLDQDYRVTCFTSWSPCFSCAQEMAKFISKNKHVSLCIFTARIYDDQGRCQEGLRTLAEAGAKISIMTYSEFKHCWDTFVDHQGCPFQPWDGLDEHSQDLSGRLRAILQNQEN
How it was run: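 Read-out is eYFP fluorescence (Ex 488/Em 500-530) from Vif-expressing HeLa A3G-eYFP cells; more signal means A3G escaped Vif-mediated degradation. Cells plated overnight, compound pinned in, incubated overnight at 37 deg C.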
With `CC(=O)NC(c1ccco1)c1cc(F)c2cccnc2c1O` (configuration not stated) the Potency was inconclusive: 35.5 µM [inhibitor, single point].
With `CCOC(=O)c1nnc2c(-c3ccc(Cl)cc3)c(C)nn2c1N` the “activity, negative = active” value was inactive: 2.18%.
`O=C1OC(c2ccc3ccccc3c2O)(c2ccc3ccccc3c2O)c2ccccc21` was tested, and the Potency was inconclusive: 22.4 µM [inhibitor, single point].
With `COc1cccc(NC(=S)NC(=O)/C=C/c2ccco2)c1` the Potency was inconclusive: 7.94 µM [inhibitor, partial curve, poor fit].
With `CCc1ccccc1NC(=O)Cn1nnc(C(=O)NCc2ccco2)c1N` the Potency was inconclusive: 7.94 µM [inhibitor, partial curve].
For `O=C(CCS(=O)(=O)c1ccccc1)N(Cc1cccnc1)c1nc2c(F)cccc2s1`, the Potency was inconclusive: 35.5 µM [inhibitor, single point].
With `S=c1[nH]nc(-c2cc(-c3ccccc3)n[nH]2)n1/N=C/c1ccc(Cl)c(Cl)c1` the “activity, negative = active” value was inactive: -0.423%.
`COc1ccc(N2COC3c4cccc5cccc(c45)C32)cc1` (configuration not stated) was tested, and the Potency was inconclusive: 25.1 µM [inhibitor, single point].
`Cc1ccc(NCC(=O)c2ccccc2)cc1Cl` was tested, and the “activity, negative = active” value was inactive: -6.45%.
With `COc1cc(OC)c2c(-c3cccc(-c4ccc(C(F)(F)F)cc4)c3)cc(=O)oc2c1` the Potency was inconclusive: 2.51 µM [inhibitor, full curve, poor fit].
In the case of `Cc1c(C(=O)NCc2ccc3c(c2)OCCO3)sc(=O)n1Cc1ccc2c(c1)OCO2`, the “activity, negative = active” value is reported as inactive: 1.02%.
For `COc1ccccc1C(=O)NCC(=O)N/N=C/c1ccc2c(c1)OCO2`, the Potency was inconclusive: 20 µM [inhibitor, single point].
For `CN1C(=O)/C(=C/c2cn(CC(=O)N3CCCCC3)c3ccccc23)NC1=S`, the Potency was inconclusive: 35.5 µM [inhibitor, single point].
`CN1CCN(C2=C(Cl)C(=O)c3ccccc3C2=O)CC1` was tested, and the Potency was inconclusive: 17.8 µM [inhibitor, single point].
`COc1ccc(C(C[N+](=O)[O-])C2(c3ccc(OC)c(OC)c3)C(=O)c3ccccc3C2=O)cc1` (configuration not stated) was tested, and the Potency was inconclusive: 2.51 µM [inhibitor, full curve].
With `CCOC(=S)SCC(=O)Nc1ncc(C)s1` the Potency was inconclusive: 28.2 µM [inhibitor, single point].
In the case of `COc1ccc(CCCNC(=O)C2(C)Cc3c(-c4cccc(C(N)=O)c4)ccnc3O2)cc1` (configuration not stated), the Potency is reported as inconclusive: 10 µM [inhibitor, partial curve, poor fit].
In the case of `CN(C)c1ccc(/C=C/c2nc3ccccc3c(=O)n2-c2ccc(C(=O)O)cc2)cc1`, the Potency is reported as inconclusive: 3.55 µM [inhibitor, partial curve, poor fit].
`CC(C)CCSc1nc(N2CCOCC2)c2c(c1C#N)CC(C)(C)OC2` was tested, and the “activity, negative = active” value was inactive: -0.26%.
`CC(NC(=O)/C(C#N)=C/c1ccc(Cl)c([N+](=O)[O-])c1)c1ccccc1` (configuration not stated) was tested, and the Potency was inconclusive: 22.4 µM [inhibitor, single point].
In the case of `O=C1c2ccccc2/C(=C\C#Cc2ccccn2)N1c1ccccc1`, the Potency is reported as inconclusive: 35.5 µM [inhibitor, single point].
`O=C(NCc1ccccc1)C(=O)NCC1COc2ccccc2O1` (configuration not stated) was tested, and the Potency was inconclusive: 7.94 µM [inhibitor, partial curve].
`COc1ccc(-c2n[nH]c(=S)n2/N=C/C=C\c2ccccc2OC)cc1` was tested, and the Potency was inconclusive: 7.08 µM [inhibitor, full curve, poor fit].
For `Clc1ccc(NNc2ccnc3cc(Cl)ccc23)cc1`, the “activity, negative = active” value was inactive: 2.36%.
In the case of `CCOc1cc(-c2cc(-c3ccc(NC(C)=O)cc3)nc(N)c2C#N)ccc1O`, the Potency is reported as inconclusive: 14.1 µM [inhibitor, single point].
For `Cc1c(C(=O)OC/C(O)=C(\C#N)c2nc3ccccc3[nH]2)oc2ccccc12`, the Potency was inconclusive: 25.1 µM [inhibitor, single point].
In the case of `O=c1c2ccccc2nc(SCc2nc3ccccc3s2)n1CCCO`, the Potency is reported as inconclusive: 22.4 µM [inhibitor, single point].
`Cc1ccc(S(=O)(=O)/C(=C/Cl)NC(=O)c2ccccc2)cc1` was tested, and the Potency was inconclusive: 7.94 µM [inhibitor, partial curve].
In the case of `O=C(NN1C(=O)/C(=C/C=C/c2ccccc2)SC1=S)c1ccncc1`, the Potency is reported as inconclusive: 35.5 µM [inhibitor, single point].
In the case of `CC(=O)NC1=C(N(C)C2CCS(=O)(=O)C2)C(=O)c2ccccc2C1=O` (configuration not stated), the “activity, negative = active” value is reported as inactive: -8.23%.
In the case of `CCOc1cc(/C=C2\C(=N)N3N=C(N4CCCCC4)SC3=NC2=O)ccc1OC(=O)c1ccco1`, the Potency is reported as inconclusive: 35.5 µM [inhibitor, partial curve, poor fit].
For `O=c1c(Cl)c2oc3ccccc3nc-2c2ccccc12`, the Potency was inconclusive: 3.16 µM [inhibitor, partial curve, poor fit].
In the case of `CCOC(=O)c1c(-c2ccccc2)csc1NC(=O)COc1ccc2c(C)cc(=O)oc2c1`, the “activity, negative = active” value is reported as inactive: -2.46%.
`COC(C/C=C/C(=O)[C@H](C)OCc1ccccc1)OC` was tested, and the Potency was inconclusive: 35.5 µM [inhibitor, single point].
In the case of `COc1cccc(/C=N/NC(=O)c2[nH]nc3c2CCc2ccccc2-3)c1`, the Potency is reported as inconclusive: 2 µM [inhibitor, full curve, poor fit].
With `CN(C)CCCN1C(=O)c2cccc3c([N+](=O)[O-])ccc(c23)C1=O` the Potency was inconclusive: 7.94 µM [inhibitor, partial curve, poor fit].
With `CCOc1ccc(C2C(C#N)=C(N)SC(N)=C2C#N)cc1OCC` the Potency was inconclusive: 25.1 µM [inhibitor, single point].
For `N=c1c(C(=O)NCc2ccc3c(c2)OCO3)cc2c(=O)n3ccccc3nc2n1Cc1cccnc1`, the “activity, negative = active” value was inactive: -0.765%.
`CC1CC(C)CN(c2cc(N(C)CCO)c([N+](=O)[O-])c3nonc23)C1` (configuration not stated) was tested, and the “activity, negative = active” value was inactive: 3.08%.
`Cc1cc(C(=O)NNc2ccc(C)c(C)c2)no1` was tested, and the “activity, negative = active” value was inactive: -22.2%.
In the case of `COc1cccc(/C=C/C(=O)c2ccc3c(c2)OCCO3)c1OC`, the Potency is reported as inconclusive: 35.5 µM [inhibitor, single point].
For `COc1ccc(CCn2c(NN)nc3c2c(=O)[nH]c(=O)n3C)cc1`, the Potency was inconclusive: 10 µM [inhibitor, partial curve, poor fit].
In the case of `Cc1ccc2nc3c(cc(C(=O)NCc4ccco4)c(=N)n3C(C)C)c(=O)n2c1`, the “activity, negative = active” value is reported as inactive: 4.39%.
`Cc1cc2oc(=O)cc(C)c2cc1NC(=O)CCl` was tested, and the Potency was inconclusive: 35.5 µM [inhibitor, single point].
`COCCn1nnnc1C(c1ccc(OC)c(OC)c1)N1CCN(c2nc3ccccc3s2)CC1` (configuration not stated) was tested, and the Potency was inconclusive: 6.31 µM [inhibitor, single point].
In the case of `COc1ccc(-c2cc(C(=O)N/N=C/c3sccc3C)c3ccccc3n2)c(OC)c1`, the Potency is reported as inconclusive: 6.31 µM [inhibitor, full curve].
With `Cc1ccc(C)c(NS(=O)(=O)c2ccc3oc(=O)c4ncn(C)c4c3c2)c1` the Potency was inconclusive: 25.1 µM [inhibitor, single point].
In the case of `COc1ccc(Cc2nc3ccc(C(=O)N(C)Cc4nccs4)cc3o2)cc1OC`, the “activity, negative = active” value is reported as inactive: 3.83%.
`COCc1oc2ccc(NS(=O)(=O)c3ccc(C)cc3)cc2c1C(=O)OC` was tested, and the Potency was inconclusive: 2.51 µM [inhibitor, partial curve, poor fit].
For `CCOC(=O)C1CCCN(C(=O)c2ccc3nc(-c4cccc(OC)c4)oc3c2)C1` (configuration not stated), the Potency was inconclusive: 5.62 µM [inhibitor, partial curve].
With `C=CCN1C(=O)/C(=C/C=C2/N(CC)c3ccc(S(=O)(=O)N(C)C)cc3N2CC)SC1=S` the Potency was inconclusive: 20 µM [inhibitor, partial curve, poor fit].
With `Cc1ccc(NC(=O)c2ccc3c(c2)nnn3C)cc1` the “activity, negative = active” value was inactive: -6.38%.
For `Nc1ccc2nc(-c3ccccc3)c(-c3ccccc3)nc2c1`, the Potency was inconclusive: 10 µM [inhibitor, partial curve, poor fit].
`CCN(CC)c1ccc(/C=C(/C#N)c2nc3ccc(C)cc3[nH]2)c(OC(C)C)c1` was tested, and the Potency was inconclusive: 0.562 µM [inhibitor, partial curve, poor fit].
With `Cc1cc(/C=C/c2ccnc3ccccc23)ccc1N` the Potency was active: 10 µM.
With `Cc1cc(/C=C(\C#N)C(=O)N2CCCCC2)cc(C)c1O` the Potency was inconclusive: 7.08 µM [inhibitor, partial curve].
In the case of `CC[n+]1ccccc1/C=C/Nc1ccccc1`, the “activity, negative = active” value is reported as inactive: -0.995%.
In the case of `COc1cc2ccccc2cc1C(=O)N(CCN(C)C)c1nc2ccc(C)cc2s1`, the “activity, negative = active” value is reported as inactive: -15%.
With `Cc1ccc(-n2c(=O)c3c(cnn3C)n(CC(=O)Nc3cccc(C)c3)c2=O)cc1` the “activity, negative = active” value was inactive: -0.739%.
In the case of `O=C(Nc1ccc(Br)cn1)c1cccc(-c2cc3ccccc3oc2=O)c1`, the Potency is reported as inconclusive: 35.5 µM [inhibitor, single point].
`O=C(O)c1ccc(CSc2nc(-c3ccc(Cl)cc3)cc(C(F)(F)F)n2)cc1` was tested, and the Potency was inconclusive: 20 µM [inhibitor, single point].
For `CCOc1ccccc1C(=O)NCc1ccc2c(c1)CCN2C(=O)c1ccccc1`, the Potency was inconclusive: 17.8 µM [inhibitor, single point].
`CCc1ccc(C2C(C#N)=C(N)SC(N)=C2C#N)s1` was tested, and the Potency was inconclusive: 20 µM [inhibitor, single point].
For `Clc1cccc(-n2ncc3c(NCCCN4CCOCC4)ncnc32)c1`, the “activity, negative = active” value was inactive: -5.46%.
`COc1cc(C(=O)Nc2cc(-c3ccccc3)[nH]n2)cc(OC)c1OC` was tested, and the Potency was inconclusive: 35.5 µM [inhibitor, single point].
With `COc1ccc(/C=C2\C(=O)NC(=S)N2C(=O)c2ccc(C)cc2)cc1` the Potency was inconclusive: 31.6 µM [inhibitor, single point].
`COc1cccc(N=c2oc3ccc(OC)cc3cc2-c2nc3ccccc3[nH]2)c1` was tested, and the Potency was inconclusive: 10 µM [inhibitor, partial curve].
